# From the supplement of paper PMC4466236
# The full ranking holds about 33,000 sequences; the median of “E-score (dimensionless, -0.5 to 0.5)” is about -0.058, and the highest 2% start at about 0.35. This is one part of the list.
# Tested on: MvaT
# Assay: PBM 8-mer E-score (mean of HK and ME arrays) (E-score (dimensionless, -0.5 to 0.5)); higher = stronger relative binding preference; most listed sequences are background and not binding sites
# Summary of the method: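 Full-length P. aeruginosa MvaT, with glutathione S-transferase fused to its N-terminus (cloned into pTH6838 by isothermal assembly), was tested by protein binding microarray using a previously described protocol. Two universal double-stranded 60-mer arrays (ME and HK) were used, each with a constant 25-mer primer region and a variable 35-mer region covering all 8-mers. The rank-based 8-mer E-score (-0.5 to 0.5) is the mean of the two arrays, parsed with a custom Python script.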
row,Sequence,PBM 8-mer E-score
1,CTTGCGTC,-0.136
2,TAAAAGGA,0.158
3,CCGACTCC,-0.222
4,AAAGAAGC,-0.0145
5,CCTCCTTC,-0.353
6,CCAAGCGC,-0.229
7,AAATCCAT,0.102
8,AGCTACAG,-0.0843
9,ATGTGAAT,0.121
10,AGTTTACA,0.178
11,ACAGCGCA,-0.156
12,ATCCGGCG,-0.0394
13,ATACGGAT,0.0891
14,ACTGATCT,-0.0481
15,GAGGACAC,-0.0434
16,ACCTCCAC,-0.149
17,CGTTAGAG,-0.0872
18,ATGTGGTA,0.124
19,GCGAGAGA,-0.103
20,GCTATCCA,-0.222
21,GCGGCAAC,-0.145
22,ACATGCGA,-0.0347

row,Sequence,PBM 8-mer E-score
1,AGGATAGG,-0.115
2,GAGTTATA,0.369
3,GGCGAGGA,-0.112
4,TCGTCAGA,-0.0502
5,GCCATACC,-0.261
6,CGGACTAG,-0.159
7,CCCTTTTA,-0.00136
8,CGTCTTTA,0.0862
9,GATTTTGC,0.0707
10,GCGACACC,-0.247
11,ACCCCTTC,-0.311
12,CATCGCCG,-0.171
13,CCACCGGC,-0.21
14,CCCTTGCC,-0.332
15,CCGGGAAC,-0.283
16,ATTCTTAA,0.213
17,CAGCACTC,-0.123
18,ATCGGGTC,-0.147
19,ACGTCGCA,-0.21
20,ACTGGGCA,-0.266
21,CGGGCACG,-0.17
22,AACCTTCT,-0.155

row,Sequence,PBM 8-mer E-score
1,GTAATATA,0.436
2,CCGCTAGG,-0.25
3,CACCACAA,0.0251
4,GTATGCTA,-0.0261
5,GTAAGAAC,0.0573
6,CTCGTAAC,-0.11
7,AATTTCAA,0.32
8,ACAAACCT,0.102
9,CCATCAGG,-0.358
10,ATATAAGG,0.31
11,TATCACGA,0.175
12,CGTTGCCA,-0.032
13,GGGCTGAA,-0.257
14,ATCGATTC,0.199
15,ATCGGCTG,0.028
16,CGTGGACC,-0.247
17,AGTTTTTC,0.154
18,AACGCAGA,0.00264
19,AGAGATAA,0.144
20,CACACACG,-0.16
21,CAGCGAAC,-0.127
22,GGAGGCAA,-0.11

row,Sequence,PBM 8-mer E-score
1,AGGTCGAG,-0.193
2,GTGTCCCA,-0.104
3,ATCAGGGG,-0.0941
4,AGAAGGGC,-0.284
5,GGCACATA,0.158
6,GCGCAATA,0.143
7,ACGGGTTC,-0.115
8,ACCCTAAT,-0.0259
9,CATAATTA,0.421
10,CTCCGAGC,-0.182
11,AAGATGTA,0.0691
12,TAAGACAA,0.207
13,GGCTCTAC,-0.167
14,GGAACACC,-0.11
15,AGAACTAA,0.268
16,ATCGACGG,-0.139
17,GACCCTCC,-0.19
18,TCAACGCA,0.047
19,GCAACCAA,0.0658
20,CTTCCCAC,-0.159
21,CGTAGAGC,-0.145
22,CCATTCGA,-0.0955

row,Sequence,PBM 8-mer E-score
1,GACGGTGA,-0.0997
2,AGCGGAGC,-0.214
3,GGGCGTTA,-0.0456
4,GTCCGACA,-0.115
5,TAGTCTGA,0.0401
6,CGGACACC,-0.168
7,CAGGAGGG,-0.258
8,GTCCCATA,-0.05
9,ATGATTTA,0.18
10,ACACCGAC,-0.114
11,GGCAAATA,0.279
12,CATCGGGA,-0.163
13,CTCTCATC,-0.243
14,CCCGGATA,-0.0749
15,CGTCCACA,-0.2
16,CCGCCGCA,-0.302
17,CGGATCAA,-0.0667
18,AACATTGC,0.0199
19,CCTCCCCA,-0.292
20,AGTAACCG,0.0201
21,CGTTGGAA,-0.198
